Results taken from PubChem BioAssay AID1259400 (National Center for Advancing Translational Sciences (NCATS), 2018).
Several values for one entry are separate records, joined by “and”; a condition that tells them apart may be missing. Identical values can stand only once. Among all 350,000 compounds or so, about 2,100 (0.6%) were called active. Inconclusive means that the source gave no clear call. Such entries were picked first, then a sample of the others.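 Rule for the calls: active = activity change of -60% or lower, but not beyond a set lower limit; inconclusive = change between -60% and -40%, or beyond the set limit; inactive = change above -40%.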

Target: Relaxin receptor 1 (Homo sapiens) (UniProt Q9HBX9)
UniProt Q9HBX9, sequence (Q9HBX9 whole entry, looked up): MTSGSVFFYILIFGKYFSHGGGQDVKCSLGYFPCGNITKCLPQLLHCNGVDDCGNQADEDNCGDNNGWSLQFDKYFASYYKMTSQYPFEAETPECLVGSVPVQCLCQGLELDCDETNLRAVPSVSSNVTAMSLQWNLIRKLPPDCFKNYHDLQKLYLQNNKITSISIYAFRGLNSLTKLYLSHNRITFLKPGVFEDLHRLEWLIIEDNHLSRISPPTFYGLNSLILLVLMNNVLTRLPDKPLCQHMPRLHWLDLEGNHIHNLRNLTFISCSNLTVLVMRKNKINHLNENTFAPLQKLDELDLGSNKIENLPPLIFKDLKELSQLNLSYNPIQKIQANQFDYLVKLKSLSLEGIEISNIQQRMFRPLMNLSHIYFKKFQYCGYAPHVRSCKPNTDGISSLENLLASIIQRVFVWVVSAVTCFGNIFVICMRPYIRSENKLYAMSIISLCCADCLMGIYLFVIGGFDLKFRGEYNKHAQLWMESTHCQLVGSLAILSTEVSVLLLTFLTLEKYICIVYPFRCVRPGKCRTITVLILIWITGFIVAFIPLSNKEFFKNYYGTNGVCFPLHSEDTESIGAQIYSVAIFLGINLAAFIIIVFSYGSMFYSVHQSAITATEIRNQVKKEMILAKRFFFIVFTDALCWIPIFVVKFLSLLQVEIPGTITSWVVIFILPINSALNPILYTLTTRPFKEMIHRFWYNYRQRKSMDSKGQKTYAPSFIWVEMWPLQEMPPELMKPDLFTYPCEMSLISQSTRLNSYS
Assay: qHTS Assay for Antagonists of the Relaxin Receptor RXFP1
Conditions: HEK293-RXFP1, relaxin-stimulated cAMP HTRF, 30 min; at 57.5 µM; active compounds read low
% is set by controls: 0 for no effect and ±100 for the full control effect.

Compound | activity change, negative = inhibition
C/C(=C(/OCCOc1ccc(Cl)cc1)c1ccc(Cl)cc1Cl)n1ccnc1 | inconclusive: -42.2%
Cc1ccc(CNC(=O)c2ccc(CSCc3ccc(Cl)cc3)o2)cc1 | inconclusive: -56.4%
O=C(Nc1nnc(SCc2ccc(F)cc2)s1)C1Cc2ccccc2CN1C(=O)c1ccco1 (stereo not given) | active: -64.1%
CC(=O)Nc1cccc(-c2csc(Nc3cccc(C)n3)n2)c1 | active: -62.8%
CC(C)(C)c1ccc(O)c(O)c1 | inconclusive: -42.5%
Cc1nn(C(C)C)c(C)c1CN1CCC(C(=O)Nc2cccc(-c3cccc(F)c3)c2)CC1 | active: -82%
Cc1ccc(CNC(=O)CSc2ccsc2[N+](=O)[O-])cc1 | inactive: -30.3%
Cc1cccc(CN2C(=O)c3ccccc3Sc3ccc(C(=O)N4CCCC4)cc32)c1 | active: -112%
Cc1ccc(S(=O)(=O)n2nnc3ccccc32)c(C)c1C | inconclusive: -52.4%
Cc1cc(NC(=O)CCCn2c(C)c3cnn(-c4ccccc4)c(=O)c3c2C)ccc1Br | inconclusive: -42.8%
COc1cccc(Nc2nc(-c3sc(C)nc3C)cs2)c1 | inconclusive: -55.4%
Cc1cccc(NC(=O)C2CCN(S(=O)(=O)c3c(C)c(C)cc(C)c3C)CC2)n1 | active: -78.8%
Cc1ccc(SCc2[nH]nc3c2C(c2ccc(C)o2)C(C#N)=C(N)O3)cc1 (stereo not given) | inconclusive: -59.2%
O=c1c2ccccc2c(-c2ccc(O)cc2)nn1-c1cccc(C(F)(F)F)c1 | inconclusive: -58%
CCc1ccc(C(O)(C(C)C)C(CN2CCOCC2)c2ccccc2)cc1 (stereo not given) | active: -78.1%
COc1ccc(NC(=O)c2csc3c2CCCCC3)c(OC)c1 | inconclusive: -41.9%
Cc1cccc(C(=O)NC(=S)N2CCN(C(=S)NC(=O)c3cccc(C)c3)CC2)c1 | inconclusive: -42.8%
S=C(NCc1ccco1)Nc1ccc(Oc2ccc(Cl)cc2)cc1 | inconclusive: -42.5%
CN(C)CCC(=O)N1C/C(=C/c2ccccc2)C(=O)/C(=C\c2ccccc2)C1 | active: -114%
COc1cc(OC)c(NC(=O)N2CCSc3ccccc32)cc1Cl | inactive: -2.97%
Cc1ccc(NC(=O)CCCn2c(=O)c3cccn3c3ccccc32)c(Cl)c1 | inconclusive: -42%
COc1cc(NC(=O)c2cc(-c3cccc(OC)c3)n[nH]2)cc(OC)c1 | inconclusive: -40.9%

Compound | activity change, negative = inhibition
CCN(CC)S(=O)(=O)c1ccc(NC(=O)c2cccnc2Cl)c(NC(=O)c2cccnc2Cl)c1 | inconclusive: -55.9%
COc1ccc(-c2nc(N)nc(C)c2Oc2ccccc2Br)c(O)c1 | inconclusive: -40.7%
O=C(NN1CCOCC1)c1cc(-c2cccs2)nc2ccccc12 | inactive: -1.28%
CCOc1ccccc1CNC(=O)c1oc2c(c1C)-c1nn(Cc3cccc(Cl)c3)cc1CC2 | inconclusive: -47.6%
COC(=O)c1cc2sccc2n1Cc1ccc(F)cc1Cl | inconclusive: -54.9%
COc1c(C)cccc1C(=O)Nc1ccc(N2CCN(S(C)(=O)=O)CC2)cc1 | inactive: -7.97%
Cc1ccccc1OCC(=O)Nc1ccc2nc(SCC(=O)N3CCOCC3)sc2c1 | inconclusive: -59.6%
COC(=O)c1ccc(-c2ccc(C(c3c(C)[nH][nH]c3=O)c3c(C)[nH][nH]c3=O)o2)cc1 | active: -87.3%
Cc1ccc(S(=O)(=O)Nc2ccc(NC(=O)c3cccs3)cc2)cc1 | inactive: -38.8%
Nc1c(C(=O)NCC2CCCO2)sc2nc3c(c(-c4ccco4)c12)CC/C3=C\c1ccco1 (stereo not given) | active: -102%
COC(=O)c1ccc2c(=O)n(CCCCCC(=O)N3CCN(c4cccc(C)c4C)CC3)c(=O)[nH]c2c1 | inconclusive: -40%
CCOc1cc(CNc2ccc(O)cc2)cc(Cl)c1OCc1ccccc1 | inconclusive: -53.3%
COc1ccc(CCNc2nc(-c3ccc(NC(C)=O)cc3)cs2)cc1OC | inconclusive: -41.7%
CN(C)c1ccc(C=c2c3ccccc3n3c2c2c([n+]3C)CCCC2)cc1 | inconclusive: -56.4%
CC(C)(C)C(=O)/C(C#N)=C/c1cccs1 | inactive: 7.91%
COc1ccc(-c2csc(NC(=S)NC(=O)/C=C/c3ccco3)n2)cc1Br | inactive: -14%
N#CC(=C=[N-])C1=C(C#N)C(c2ccccc2F)C([n+]2ccccc2)C(O)(C2CC2)N1 (stereo not given) | inactive: 32.8%
COc1cc(-c2nc(CN(C)C(C)c3ccncn3)c(C)o2)ccc1F (stereo not given) | inconclusive: -56.1%
COC(=O)c1c(NC(NC(=O)C(C)C)C(Cl)(Cl)Cl)sc2c1CCC2 (stereo not given) | active: -60.4%
O=C(NCCSCc1ccco1)Nc1cc(Cl)cc(Cl)c1 | active: -71.4%
O=[N+]([O-])c1cc(CN2CCOCC2)c2cccnc2c1O | active: -102%
COc1cc(NC(=O)c2ccc(C(=O)Nc3cc(OC)c(Cl)cc3OC)cc2)c(OC)cc1Cl | inactive: 1.83%

Compound | activity change, negative = inhibition
CC1=C(C)/C(=N\OS(=O)(=O)c2ccccc2)C=CC1=O | active: -114%
CSc1sc(C)cc1/C=N/O | inactive: -1.01%
CCc1ccc(NC(=O)CSC2=Nc3ccccc3C3=NC(CCC(=O)NCc4cccs4)C(=O)N23)cc1 (stereo not given) | inconclusive: -50.8%
CCCc1nn2c(=O)cc(COC(=O)c3ccc(NC(=O)c4cccs4)cc3)nc2s1 | inactive: -28.9%
CCOc1cc(N2CCOCC2)c(OCC)cc1NC(=O)c1ccc(S(C)(=O)=O)cc1 | inactive: -16.2%
Cc1c(/C=C/C(=O)c2ccccc2)cnn1C | inactive: 5.85%
O=C(c1ccccc1F)n1c2c(c3ccccc31)CCCC2 | inconclusive: -48%
CCOC(=O)Cc1ccc(NC(=O)Nc2nnc(N3CCCCC3C)s2)cc1 (stereo not given) | inconclusive: -47.7%
Cc1ccc(-c2csc(/C=C3/SC(C)C(=O)N3CC(=O)Nc3ccccc3F)n2)cc1 (stereo not given) | active: -83.7%
NC(=S)Nc1cc2ccccc2c2ccccc12 | inactive: 7.14%
Cc1ccc(NC(=O)C2CCC(CNS(=O)(=O)c3cccs3)CC2)cc1C (stereo not given) | inconclusive: -57%
O=C1CN(C(=O)c2ccc(Cl)nc2)c2ccccc2N1 | inconclusive: -47.2%
CCn1c(SCC(=O)Nc2ccccc2C(=O)OC)nnc1-c1cccc(C)c1 | inactive: 0.752%
COc1ccc(-c2csc(NC(=S)NC(=O)c3ccco3)n2)cc1 | inactive: 1.19%
COc1ccccc1CNCC(O)Cn1c2ccccc2c2ccccc21 (stereo not given) | inconclusive: -43.7%
COc1ccc(-c2[nH]c(-c3ccc(C)cc3)nc2SCC(=O)NCC2CCCO2)cc1 (stereo not given) | inconclusive: -44%
CC(=O)c1c(C)n(-c2cccc(Cl)c2)c2ccc(OC(=O)c3ccccc3)cc12 | inactive: -10.9%
CCc1sc(C(=O)N2CCc3ccccc32)cc1C | inactive: -4.43%
CCCOC(=O)c1c(-c2ccccc2)c(-c2ccccc2)nn(C)c1=O | active: -65.3%
CC(C)c1ccc(NC(=O)CSC2=Nc3ccccc3C3=NC(CCC(=O)NCc4cccs4)C(=O)N23)cc1 (stereo not given) | inactive: -1.28%
CC(C)Oc1ccc(C(=O)NCCNC(=O)c2ccco2)cc1 | inactive: -1.77%
Cc1ccc(NS(=O)(=O)c2sc3ccc(Cl)cc3c2C)cc1 | inconclusive: -47.9%

Compound | activity change, negative = inhibition
CN(C)CCCNC(=O)/C(=C\C=C\c1ccccc1)NC(=O)c1ccc([N+](=O)[O-])cc1 | inconclusive: -40.1%
COc1cccc(NC(=O)Cn2c3ccc(OC)cc3c3nc4n(c(=O)c32)CCS4)c1 | inactive: 4.26%
Cc1cc(C)c(C)c(OCCCCN(C)Cc2ccccc2)c1 | inconclusive: -42.2%
C=CCN(C(=O)c1cccc(C(F)(F)F)c1)C1(C(=O)Nc2ccccc2)CCN(C(C)C)CC1 | inconclusive: -49.6%
Cc1ccc(-c2nn(-c3ccc(F)cc3)cc2C(=O)NCC(c2cccs2)N2CCOCC2)cc1 (stereo not given) | inconclusive: -41.9%
CC1=C(C)C(=O)C(C(CCCCCC(=O)O)c2ccccc2)=C(C)C1=O (stereo not given) | inactive: -21%
CC(C)Oc1ccc(/C=N/NC(=O)c2ccc(N(Cc3ccccc3)S(C)(=O)=O)cc2)cc1 | inactive: -9.33%
COc1ccc(-c2cc(CCCC(=O)NCCc3ccc(OC)cc3OC)no2)cc1 | inactive: -6.16%
CN(C)Cc1c(O)ccc2cc(-c3nc4ccccc4n3C)c(=O)oc12 | inactive: 6.57%
COc1ccccc1-n1cc(C(=O)N2CCCC(CO)(Cc3ccccc3C)C2)cn1 (stereo not given) | inconclusive: -41.3%
COc1ccc(/C=C2/SC(=S)N(NS(=O)(=O)c3ccc(C)cc3)C2=O)cc1 | inconclusive: -40.1%
CC(C)(C)OC(=O)N1CCC(c2c(C(=O)N3CCN(c4ccccn4)CC3)cnn2-c2ccc(F)cc2)CC1 | inactive: -7.36%
Cc1cccc(CS(=O)(=O)c2ncc(Cl)c(C(=O)Nc3nnc(C(C)C)s3)n2)c1 | inconclusive: -48% and inconclusive: -48.4%
Nc1ccc2c(c1)C(=O)c1ccc(N)cc1-2 | inconclusive: -41.4%
COc1cccc(C(C(=O)NC2CCCC2)N(C(=O)CNC(=O)c2ccco2)c2cccnc2)c1 (stereo not given) | inconclusive: -53.6%
Cc1cc(C)c2nc(N(CCCN(C)C)C(=O)c3ccc(S(=O)(=O)N4CCCCCC4)cc3)sc2c1 | inconclusive: -56.9%
CN(C)CCCNC(=S)NCC(c1ccc(Cl)cc1Cl)c1c[nH]c2ccccc12 (stereo not given) | active: -60.6%
O=C(OCc1ccccc1)N(CCCCN(CCCNCc1ccccc1)C(=O)OCc1ccccc1)CCCNCc1ccccc1 | active: -94.1%
COc1cc(C(C)=O)ccc1OCC(=O)Nc1ccc(Cl)c(S(=O)(=O)N2CCOCC2)c1 | inconclusive: -45.5%
